pIC50: −log10 of the molar value. IC50 is the fitted dose that halves viability relative to control wells, and lower means more sensitive; a limit (>, <) means that the fit lies beyond the doses tested. AUC is the area under the same curve over the 256-fold range up to the top dose, as a fraction; the more sensitive the line, the further below 1. An inferred top dose was derived from the fitted curves, not read from the paper.
Tests used:
Assay in all cases: Viability of human cancer cell lines after 72 h of drug (GDSC screen)
Bryostatin 1 = compound: CCC/C=C/C=C/C(=O)O[C@H]1/C(=C/C(=O)OC)C[C@H]2C[C@H]([C@@H](C)O)OC(=O)C[C@H](O)C[C@@H]3C[C@H](OC(C)=O)C(C)(C)[C@](O)(C[C@@H]4C/C(=C/C(=O)OC)C[C@H](/C=C/C(C)(C)[C@]1(O)O2)O4)O3 [Bryostatin 1]; settings: top dose 0.008 µM; top dose inferred
Method: (§1)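 Human cancer cell lines in 384-well plates, medium with 10% serum, drug for 72 h over a 256-fold dose range (nine 2-fold or five 4-fold steps up to the top dose). Adherent lines were fixed and stained with the nucleic acid dye Syto60, suspension lines read with resazurin; signal relative to control wells, capped at 0 and 100%. One two-parameter sigmoid per drug and line, fitted in a mixed model over all curves with the slope shared within a line.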

Lenalidomide = compound: Nc1cccc2c1CN(C1CCC(=O)NC1=O)C2=O [Lenalidomide]; settings: top dose 5 µM; top dose inferred
Method: as §1

SGC0946 = compound: CC(C)N(CCCNC(=O)Nc1ccc(C(C)(C)C)cc1)C[C@H]1O[C@@H](n2cc(Br)c3c(N)ncnc32)[C@H](O)[C@@H]1O [SGC0946]; settings: top dose 0.5 µM; top dose inferred
Method: as §1

GW-2580 = compound: COc1ccc(COc2ccc(Cc3cnc(N)nc3N)cc2OC)cc1 [GW-2580]; settings: top dose 20 µM; top dose inferred
Method: as §1

Row | Cell Line | AUC (Bryostatin 1) | pIC50 (Bryostatin 1) | AUC (Lenalidomide) | pIC50 (Lenalidomide) | AUC (SGC0946) | pIC50 (SGC0946) | AUC (GW-2580) | pIC50 (GW-2580)
1 | EFO-21 (ovary, adherent) | 0.979 | < 8.10 | 0.98 | < 5.30 | 0.977 | < 6.30 | 0.978 | < 4.70
2 | ACHN (kidney, adherent) | 0.979 | < 8.10 | 0.978 | < 5.30 | 0.981 | < 6.30 | 0.973 | < 4.70
3 | DND-41 (T-cell leukaemia, suspension) | 0.979 | < 8.10 | 0.984 | < 5.30 | 0.989 | < 6.30 | 0.989 | < 4.70
4 | CCK-81 (large intestine, adherent) | 0.989 | < 8.10 | 0.98 | < 5.30 | 0.982 | < 6.30 | 0.99 | < 4.70
5 | REH (B-cell leukaemia, suspension) | 0.987 | < 8.10 | 0.939 | < 5.30 | 0.984 | < 6.30 | 0.981 | < 4.70
6 | HEC-1 (endometrium, adherent) | 0.989 | < 8.10 | 0.989 | < 5.30 | 0.978 | < 6.30 | 0.982 | < 4.70
7 | SW1271 (small cell lung carcinoma, adherent) | 0.95 | < 8.10 | 0.984 | < 5.30 | 0.98 | < 6.30 | 0.978 | < 4.70
8 | LXF-289 (lung adenocarcinoma, adherent) | 0.962 | < 8.10 | 0.986 | < 5.30 | 0.985 | < 6.30 | 0.984 | < 4.70
9 | NCI-H2227 (small cell lung carcinoma, semi-adherent) | 0.983 | < 8.10 | 0.986 | < 5.30 | 0.983 | < 6.30 | 0.984 | < 4.70
10 | SUP-HD1 (Hodgkin lymphoma, suspension) | 0.988 | < 8.10 | 0.982 | < 5.30 | 0.986 | < 6.30 | 0.985 | < 4.70
11 | CHSA8926 (chondrosarcoma, adherent) | 0.953 | < 8.10 | 0.972 | < 5.30 | 0.975 | < 6.30 | 0.978 | < 4.70
12 | T98G (glioma, adherent) | 0.98 | < 8.10 | 0.99 | < 5.30 | 0.989 | < 6.30 | 0.99 | < 4.70
13 | TGW (neuroblastoma, adherent) | 0.992 | < 8.10 | 0.992 | < 5.30 | 0.98 | < 6.30 | 0.99 | < 4.70
14 | SF295 (glioma, adherent) | 0.964 | < 8.10 | 0.973 | < 5.30 | 0.97 | < 6.30 | 0.984 | < 4.70
15 | P31-FUJ (acute myeloid leukaemia, suspension) | 0.996 | < 8.10 | 0.99 | < 5.30 | 0.996 | < 6.30 | 0.994 | < 4.70
16 | SW1783 (glioma, adherent) | 0.971 | < 8.10 | 0.991 | < 5.30 | 0.99 | < 6.30 | 0.974 | < 4.70
17 | JURL-MK1 (chronic myeloid leukaemia, suspension) | 0.969 | < 8.10 | 0.953 | < 5.30 | 0.985 | < 6.30 | 0.987 | < 4.70
18 | YAPC (pancreas, adherent) | 0.933 | < 8.10 | 0.983 | < 5.30 | 0.983 | < 6.30 | 0.984 | < 4.70
19 | 42-MG-BA (glioma, adherent) | 0.985 | < 8.10 | 0.971 | < 5.30 | 0.982 | < 6.30 | 0.985 | < 4.70
20 | SK-MEL-30 (melanoma, adherent) | 0.947 | < 8.10 | 0.986 | < 5.30 | 0.984 | < 6.30 | 0.985 | < 4.70

Row | Cell Line | AUC (Bryostatin 1) | pIC50 (Bryostatin 1) | AUC (Lenalidomide) | pIC50 (Lenalidomide) | AUC (SGC0946) | pIC50 (SGC0946) | AUC (GW-2580) | pIC50 (GW-2580)
21 | EVSA-T (breast, adherent) | 0.989 | < 8.10 | 0.991 | < 5.30 | 0.99 | < 6.30 | 0.97 | < 4.70
22 | NCI-H526 (small cell lung carcinoma, suspension) | 0.987 | < 8.10 | 0.989 | < 5.30 | 0.989 | < 6.30 | 0.964 | < 4.70
23 | PCI-15A (head and neck, adherent) | 0.976 | < 8.10 | 0.988 | < 5.30 | 0.986 | < 6.30 | 0.984 | < 4.70
24 | 639-V (bladder, adherent) | 0.959 | < 8.10 | 0.96 | < 5.30 | 0.991 | < 6.30 | 0.987 | < 4.70
25 | PANC-02-03 (pancreas, adherent) | 0.972 | < 8.10 | 0.968 | < 5.30 | 0.981 | < 6.30 | 0.983 | < 4.70
26 | SW1710 (bladder, adherent) | 0.985 | < 8.10 | 0.985 | < 5.30 | 0.983 | < 6.30 | 0.983 | < 4.70
27 | NOS-1 (osteosarcoma, adherent) | 0.965 | < 8.10 | 0.948 | < 5.30 | 0.977 | < 6.30 | 0.96 | < 4.70
28 | NCI-H69 (small cell lung carcinoma, suspension) | 0.985 | < 8.10 | 0.986 | < 5.30 | 0.981 | < 6.30 | 0.949 | < 4.70
29 | CFPAC-1 (pancreas, adherent) | 0.971 | < 8.10 | 0.975 | < 5.30 | 0.982 | < 6.30 | 0.984 | < 4.70
30 | SNU-387 (liver, adherent) | 0.978 | < 8.10 | 0.983 | < 5.30 | 0.959 | < 6.30 | 0.961 | < 4.70
31 | D-542MG (glioma, adherent) | 0.841 | 8.13 | 0.984 | < 5.30 | 0.955 | < 6.30 | 0.982 | < 4.70
32 | NCI-H1581 (large cell lung carcinoma, semi-adherent) | 0.99 | < 8.10 | 0.989 | < 5.30 | 0.988 | < 6.30 | 0.958 | < 4.70
33 | NCI-H441 (lung adenocarcinoma, adherent) | 0.97 | < 8.10 | 0.981 | < 5.30 | 0.971 | < 6.30 | 0.981 | < 4.70
34 | TOV-21G (ovary, adherent) | 0.974 | < 8.10 | 0.951 | < 5.30 | 0.952 | < 6.30 | 0.975 | < 4.70
35 | IHH-4 (thyroid, semi-adherent) | 0.988 | < 8.10 | 0.983 | < 5.30 | 0.972 | < 6.30 | 0.981 | < 4.70
36 | C-33-A (cervix, adherent) | 0.979 | < 8.10 | 0.985 | < 5.30 | 0.985 | < 6.30 | 0.977 | < 4.70
37 | Detroit562 (head and neck, adherent) | 0.988 | < 8.10 | 0.985 | < 5.30 | 0.987 | < 6.30 | 0.985 | < 4.70
38 | NB(TU)1-10 (neuroblastoma, adherent) | 0.992 | < 8.10 | 0.964 | < 5.30 | 0.993 | < 6.30 | 0.98 | < 4.70
39 | NCI-H1755 (lung adenocarcinoma, adherent) | 0.966 | < 8.10 | 0.977 | < 5.30 | 0.977 | < 6.30 | 0.848 | 4.73
40 | H2461 (mesothelioma, adherent) | 0.92 | < 8.10 | 0.954 | < 5.30 | 0.977 | < 6.30 | 0.983 | < 4.70

Row | Cell Line | AUC (Bryostatin 1) | pIC50 (Bryostatin 1) | AUC (Lenalidomide) | pIC50 (Lenalidomide) | AUC (SGC0946) | pIC50 (SGC0946) | AUC (GW-2580) | pIC50 (GW-2580)
41 | HuH-7 (liver, adherent) | 0.887 | < 8.10 | 0.986 | < 5.30 | 0.983 | < 6.30 | 0.983 | < 4.70
42 | RH-1 (rhabdomyosarcoma, adherent) | 0.99 | < 8.10 | 0.992 | < 5.30 | 0.979 | < 6.30 | 0.992 | < 4.70
43 | K2 (melanoma, adherent) | 0.977 | < 8.10 | 0.972 | < 5.30 | 0.975 | < 6.30 | 0.971 | < 4.70
44 | NCI-H1688 (small cell lung carcinoma, adherent) | 0.98 | < 8.10 | 0.987 | < 5.30 | 0.984 | < 6.30 | 0.983 | < 4.70
45 | KP-N-YN (neuroblastoma, adherent) | 0.986 | < 8.10 | 0.985 | < 5.30 | 0.985 | < 6.30 | 0.983 | < 4.70
46 | U251 (glioma, adherent) | 0.971 | < 8.10 | 0.987 | < 5.30 | 0.987 | < 6.30 | 0.983 | < 4.70
47 | HGC-27 (stomach, adherent) | 0.971 | < 8.10 | 0.971 | < 5.30 | 0.989 | < 6.30 | 0.983 | < 4.70
48 | PE/CA-PJ15 (head and neck, adherent) | 0.986 | < 8.10 | 0.961 | < 5.30 | 0.984 | < 6.30 | 0.984 | < 4.70
49 | NY (osteosarcoma, adherent) | 0.975 | < 8.10 | 0.988 | < 5.30 | 0.987 | < 6.30 | 0.961 | < 4.70
50 | HC-1 (hairy cell leukaemia, suspension) | 0.984 | < 8.10 | 0.987 | < 5.30 | 0.984 | < 6.30 | 0.987 | < 4.70
51 | A427 (non-small cell lung carcinoma, adherent) | 0.985 | < 8.10 | 0.979 | < 5.30 | 0.985 | < 6.30 | 0.98 | < 4.70
52 | SISO (cervix, adherent) | 0.987 | < 8.10 | 0.988 | < 5.30 | 0.987 | < 6.30 | 0.988 | < 4.70
53 | NCI-H209 (small cell lung carcinoma, suspension) | 0.971 | < 8.10 | 0.986 | < 5.30 | 0.98 | < 6.30 | 0.955 | < 4.70
54 | PCI-6A (head and neck, adherent) | 0.987 | < 8.10 | 0.958 | < 5.30 | 0.986 | < 6.30 | 0.988 | < 4.70
55 | CHP-212 (neuroblastoma, adherent) | 0.947 | < 8.10 | 0.904 | < 5.30 | 0.98 | < 6.30 | 0.987 | < 4.70
56 | KYSE-70 (oesophagus, adherent) | 0.978 | < 8.10 | 0.972 | < 5.30 | 0.985 | < 6.30 | 0.987 | < 4.70
57 | PCI-4B (head and neck, adherent) | 0.966 | < 8.10 | 0.976 | < 5.30 | 0.98 | < 6.30 | 0.987 | < 4.70
58 | RERF-LC-Sq1 (lung squamous cell carcinoma, adherent) | 0.979 | < 8.10 | 0.922 | < 5.30 | 0.975 | < 6.30 | 0.978 | < 4.70
59 | OE33 (oesophagus, adherent) | 0.977 | < 8.10 | 0.91 | < 5.30 | 0.981 | < 6.30 | 0.976 | < 4.70
